From PubChem BioAssay AID1508642 (National Center for Advancing Translational Sciences (NCATS), 2021)
Among all 43,000 compounds or so, about 200 (0.47%) were called active. About 12% were inconclusive and are not listed. Calls come from the whole dose curve; as a rule, active = well fitted cell-killing curve with a large enough effect; inconclusive = small, poorly fitted or top-dose-only effect, or effect the other way; inactive = flat fitted curve, though single readings scatter. Some of the results follow.

assay: Cell viability qHTS assay in S16 Pmp22-F2sN cells; conditions: S16 Pmp22-F2sN Schwann cells (luciferase reporters placed in the Pmp22 gene) viability, CellTiter-Glo, 24 h; series mostly up to 57.5 µM; activity change, negative = cytotoxicity: at the top concentration; note: nearly all actives have a fitted effect of over 65% in size
Summary of the method: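 S16 Schwann cells carrying the Pmp22-F2sN reporter, seeded in 1536-well format, were exposed to library compounds for 24 h at 37C. Viability was read as CellTiter-Glo luminescence after 15 min at room temperature.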
% is set by controls: 0 for no effect and ±100 for the full control effect.

| SMILES | activity change, negative = cytotoxicity |
| --- | --- |
| Cc1ccc(-n2nc(-c3ccc(F)cc3)c3cnc4cc5c(cc4c32)OCO5)cc1C | inactive: 15.3% |
| CCc1ccc(NC(=O)CC(c2ccc(C)cc2)N2Cc3ccccc3C2=O)cc1 (configuration not stated) | inactive: 12.9% |
| COCCNC(=O)c1ccc2nc(CCc3ccccc3)oc2c1 | inactive: 0.348% |
| O=C(Nc1ccc2oc(-c3ccc4ccccc4c3)nc2c1)c1cc(Br)ccc1Cl | inactive: -4.38% |
| O=C(NCc1ccc(Cl)cc1)C(=O)Nc1cccc(Br)c1 | inactive: -16.6% |
| CC1CCC(NC(=O)c2ccc3c(c2)N(Cc2cccc(Cl)c2)C(=O)c2ccccc2S3=O)CC1 (configuration not stated) | inactive: -0.0231% |
| Cc1ccc(CN(C(=O)c2ccccc2Br)C2CCS(=O)(=O)C2)o1 (configuration not stated) | inactive: 11.6% |
| Cc1ccc(NC(=O)Nc2cc3c(cc2N2CCCCC2)n(C)c(=O)n3C)cc1Cl | inactive: 0.962% |
| CCOc1ccccc1NC(=O)COc1cccc2c(=O)n(CCOC)ccc12 | inactive: -5.46% |
| Cn1c(=O)c2c(SCC(=O)NCc3ccco3)nc(-c3ccccc3F)nc2n(C)c1=O | inactive: -9.12% |
| COc1ccc(NC(=O)C2CCN(S(=O)(=O)c3c(C)noc3/C=C/c3ccco3)CC2)cc1 | inactive: 2.49% |
| Cc1cccc(-c2noc(-c3ccc(N4CCCC4)c([N+](=O)[O-])c3)n2)c1 | inactive: 8.9% |
| COc1cccc(NC(=O)Cn2c(=O)n(-c3cccc(OC)c3)c(=O)c3c4c(sc32)CCCC4)c1 | inactive: 11.7% |
| COc1ccc(NS(=O)(=O)c2ccc3[nH]c4c(c3c2)CCCC4)c(OC)c1 | inactive: -1.49% |
| CN(C)c1ccc(C(CNS(=O)(=O)c2cc(F)ccc2F)N2CCOCC2)cc1 (configuration not stated) | inactive: -4.79% |
| Cc1cc(C)c(Cn2c(=O)n(CCCCCC(=O)NCc3ccc4c(c3)OCO4)c(=O)c3sccc32)c(C)c1 | inactive: -0.438% |
| O=C(CSCc1ccc(F)cc1)N1CCN(c2ccccc2)CC1 | inactive: 0.369% |
| COc1ccc(C(CNC(=O)c2ccc(C)cc2)N2CCOCC2)cc1 (configuration not stated) | inactive: -2.08% |
| CCc1ccc(C2C(C(=O)Nc3ccccc3)=C(C)Nc3nc(SCC(=O)c4ccc(C)cc4)nn32)cc1 (configuration not stated) | inactive: -6.25% |
| CC(=O)c1ccc(NC(=O)Cn2c3ncccc3c(=O)n2-c2ccc(C)cc2)cc1 | inactive: 8.83% |
| COc1ccc(NC(=O)c2cnc(SCC(=O)Nc3nc4ccc(C)cc4s3)n(C)c2=O)cc1 | inactive: 22.3% |
| Cc1ccc(-c2noc(CSc3nnc(-c4ccc(Cl)cc4)n3C)n2)cc1 | inactive: -20.5% |
| Cc1cccc(C(=O)NCC(c2ccc3c(c2)OCO3)N2CCOCC2)c1 (configuration not stated) | inactive: 6.82% |
| O=C(c1ccco1)c1cn(CCOc2ccc(Cl)cc2)c2ccccc12 | inactive: 8.83% |
| CCC(=O)N1CCc2cc(CNC(=O)Nc3ccc(OC)cc3OC)ccc21 | inactive: 0.582% |

| SMILES | activity change, negative = cytotoxicity |
| --- | --- |
| COc1ccccc1-c1cc(C(F)(F)F)nc(S(=O)(=O)CCCC(=O)Nc2cc(Br)ccc2O)n1 | inactive: 17.3% |
| O=C(CSc1nccn1Cc1ccccc1)NC1CCCC1 | inactive: -9.6% |
| COc1cccc(Cc2nc3ccccc3nc2SCC(=O)N2CCCCC2C)c1 (configuration not stated) | inactive: -7.42% |
| Cc1ccc2nc(NCc3ccccc3Cl)c3nnnn3c2c1 | inactive: 0.405% |
| O=C(CSc1nc2c([nH]c3ccccc32)c(=O)n1-c1cccc(Cl)c1)N1CCc2ccccc21 | inactive: 5.43% |
| COc1cc2ccccc2cc1C(=O)Nc1ccc2oc(-c3cc(Br)ccc3Cl)nc2c1 | inactive: -0.447% |
| O=C(NCc1ccco1)c1ccc2c(c1)N(Cc1ccc(F)cc1)C(=O)c1ccccc1S2=O (configuration not stated) | inactive: -6.28% |
| O=C(CN1C(=O)CSc2ccc(S(=O)(=O)N3CCCCC3)cc21)NCc1ccc(F)cc1Cl | inactive: 2.1% |
| COc1cc(NC(=O)CCc2c(C)n(C)c3cc(-c4ccccc4C)nn3c2=O)cc(OC)c1OC | inactive: 13% |
| CCOc1ccccc1NC(=O)c1sc2nc3c(cc2c1N)CN(Cc1ccccc1)CC3 | inactive: 3.4% |
| COc1cccc(C(=O)CN2CCN(S(=O)(=O)c3ccc(Cl)cc3)CC2)c1 | inactive: 3.23% |
| Cc1ccc(NC(=O)CCS(=O)(=O)c2cccc3nonc23)c(C)c1 | inactive: 14.1% |
| CCOc1ccc(NC(=O)Cn2c(CCC(=O)O)ccc2-c2ccc(Cl)cc2)cc1 | inactive: 6.06% |
| CCCN1C(C(=O)c2ccccc2)=C(OC(=O)c2ccc(F)cc2)c2ccccc2S1(=O)=O | inactive: -12.2% |
| Cc1ccc(C)c(Cn2c3ccccc3c3cnn(CC(=O)N4CCCCC4)c(=O)c32)c1 | inactive: 9.55% |
| Cc1cccc(-n2c(=O)c3ccccc3n(Cc3ccccc3C#N)c2=O)c1 | inactive: 13.6% |
| COc1cc2c(C(=O)N3CCN(c4cccc(C)c4)C(C)C3)cn(CC(C)C)c(=O)c2cc1OC (configuration not stated) | inactive: -29.6% |
| Cc1nn(CCC(=O)NC(C)C)c(=O)c2nn(-c3ccccc3)c(C)c12 | inactive: 2.06% |
| COc1ccc(Cl)cc1NC(=O)c1cc(S(=O)(=O)N2CCc3ccccc32)cn1C | inactive: 6.25% |
| CC(C)Oc1ccc(CNC(=O)c2ccc3nc(SCc4ccc(F)cc4)n(C)c3c2)cc1 | inactive: -1.97% |
| CC(NC(=O)c1ccc2nc(CCc3ccccc3)oc2c1)c1ccccc1 (configuration not stated) | inactive: -3.56% |
| Cc1ccccc1Cn1c(C)c(CNCc2ccccc2)c(C(=O)O)c1C | inactive: 11.9% |
| COc1ccc(NC(=O)CN(C)S(=O)(=O)c2ccc3[nH]c4c(c3c2)CCCC4)cc1OC | inactive: -1.89% |
| O=C(Nc1ccc2oc(-c3cccnc3)nc2c1)c1ccc(-c2cccc(OC(F)(F)F)c2)o1 | inactive: 7.81% |
| COc1cccc(N2CCN(C(=O)c3ccc(CS(=O)c4cccc(Cl)c4)o3)CC2)c1 (configuration not stated) | inactive: -14% |

| SMILES | activity change, negative = cytotoxicity |
| --- | --- |
| O=C(NCCc1ccc(Cl)cc1)c1ccc2c(c1)N(Cc1ccccc1)CCS2 | inactive: 9.02% |
| COc1ccc(NC(=O)c2nc(SCc3ccccc3F)ncc2Cl)cc1 | inactive: -6.19% |
| Cc1ccc(C)c(NC(=O)CCc2c(C)n(C)c3cc(-c4ccccc4C)nn3c2=O)c1 | inactive: -0.0712% |
| COc1cccc(CNS(=O)(=O)c2cc(Br)cc3c2N(C(C)=O)C(C)C3)c1 (configuration not stated) | inactive: 19.4% |
| O=C(CSCc1cnn(-c2ccccc2)c1-n1cccc1)NCc1ccccc1F | inactive: 2.52% |
| CCCCOc1ccc(S(=O)(=O)n2nc(C)c(S(=O)(=O)N3CCC(C)CC3)c2C)cc1 | inactive: 15% |
| Cc1ccn2c(Nc3ccc4c(c3)OCO4)c(-c3ccc(O)cc3)nc2c1 | inactive: -4.11% |
| CCCOC(=O)C(C)n1nnc2sc(-c3ccccc3)cc2c1=O (configuration not stated) | inactive: -1.05% |
| Cc1ccc(-n2nc(C(=O)N3CCN(c4ccccc4)CC3)c(=O)n(C)c2=O)cc1 | inactive: -12.7% |
| COC(=O)c1ccccc1NC(=O)c1nc(S(=O)(=O)Cc2ccccc2F)ncc1Cl | inactive: 8.09% |
| COc1cccc(CC(=O)NCc2ccc3c(c2)CCN3C(C)=O)c1 | inactive: 10.6% |
| CN(C)S(=O)(=O)Nc1ccc(-c2cn3ccsc3n2)cc1 | inactive: 12.6% |
| CCc1ccccc1NC(=O)C1CCN(c2nn3c(=O)cc(C)nc3s2)CC1 | inactive: 0.55% |
| Cc1cccc(Cc2cnc(NC(=O)c3ccc4c(c3)CC(c3ccccc3)OC4=O)s2)c1 (configuration not stated) | inactive: 8.68% |
| CCc1ccc(-n2c(=O)c3c4c(sc3n(CC(=O)NCCCOC)c2=O)CCC4)cc1 | inactive: 16.1% |
| Cc1ccc2oc(C(=O)Nc3ccc(S(=O)(=O)N(C)Cc4ccccc4)cc3)cc(=O)c2c1 | inactive: -24.1% |
| Cc1ccc(C)c(N2CCN(S(=O)(=O)c3cnc(N)nc3)CC2)c1 | inactive: -0.0546% |
| Cc1ccc2nc(N3CCN(c4cccc(C)c4C)CC3)c3nncn3c2c1 | inactive: 0.0677% |
| Cc1ccc(NC(=O)Cn2c(=O)n(Cc3ccc4c(c3)OCO4)c(=O)c3ccccc32)c(C)c1 | inactive: 12.1% |
| CCCCc1ccc(NC(=O)CSc2nc3ccccc3nc2N2CCOCC2)cc1 | inactive: -4.57% |
| O=C(Nc1cc(Cl)cc(Cl)c1)c1ccc(F)c(S(=O)(=O)NC2CCCCC2)c1 | inactive: -10.1% |
| COc1ccc(CCNC(=O)CCSCc2ccccc2Cl)cc1OC | inactive: 4.3% |
| CC(C)c1ccc2oc(-c3ccc(NC(=O)c4cc5ccccc5o4)cc3)nc2c1 | inactive: 4.72% |
| CCOC(=O)c1ccc2c(c1)N(Cc1ccccc1)C(=O)c1ccccc1S2 | inactive: 8.84% |
| CC(C)CCn1c(=O)c2sccc2n2c(CCCC(=O)NC3CCC(C)CC3)nnc12 (configuration not stated) | inactive: 20.9% |

| SMILES | activity change, negative = cytotoxicity |
| --- | --- |
| COC(=O)c1cnc(N2CCN(c3ccc(F)cc3)CC2)c2ccccc12 | inactive: -2.93% |
| Cc1cccc(OCC(=O)N(Cc2ccccc2)c2ccccn2)c1 | inactive: 16.1% |
| COc1ccc(OCC(=O)Nc2ccccc2C(=O)OCc2cc(=O)n3nc(C)sc3n2)cc1 | inactive: 4.89% |
| COc1cc(-c2nc(-c3cccc(Cl)c3)c(-c3ccccc3)[nH]2)cc(OC)c1OC | inactive: 0.761% |
| O=C(NCCN1CCCCC1)c1ccc(Cn2c(SCc3cccc(F)c3)nc3cccnc32)cc1 | inactive: 3.78% |
| COC(=O)c1ccc(CSc2nc3c(c(=O)[nH]2)CCC3)cc1 | inactive: -5.88% |
| CC1CCC(NC(=O)c2ccc(CS(=O)(=O)c3c(Cl)cccc3Cl)o2)CC1 (configuration not stated) | inactive: 5.65% |
| O=C(CC1N=C2c3ccccc3N=C(SCc3cccc(F)c3)N2C1=O)NCc1ccc2c(c1)OCO2 (configuration not stated) | inactive: -24.6% |
| CCC(O)c1cc2c(cc1NC(=O)c1ccccc1F)OCCO2 (configuration not stated) | inactive: 2.11% |
| Cc1ccc(OCC(=O)Nc2cccc(C(=O)OCc3cc(=O)n4nc(C)sc4n3)c2)cc1 | inactive: -24.3% |
| O=C(O)c1ccc(NC(=O)c2cn(-c3ccccc3)nc2-c2ccc(Br)cc2)cc1 | inactive: -15.8% |
| Cc1ccc2c(c1C)NC(=O)CC2c1ccc(Cl)cc1Cl (configuration not stated) | inactive: 12.5% |
| CCc1ccc(OCC(=O)Nc2ccc(-c3nc4ncccc4o3)cc2)cc1 | inactive: -8.83% |
| Cc1ccc(-c2cc(C(=O)Oc3ccccc3Cl)no2)cc1C | inactive: -0.354% |
| Cc1ccc2nc(Cl)c3cc(C(=O)NC4CCC(C)CC4)sc3c2c1 (configuration not stated) | inactive: 4.74% |
| COc1cccc(CNC(=O)C(=O)Nc2ccc3nc4n(c(=O)c3c2)CCCCC4)c1 | inactive: 10.5% |
| COc1ccc(NC(=O)CN(C)S(=O)(=O)c2cnc[nH]2)cc1Cl | inactive: -1.59% |
| Cc1ccc(-c2[nH]c(-c3ccccc3)nc2SCC(=O)NCC2CCCO2)cc1 (configuration not stated) | inactive: -5.31% |
| CCc1cccc(C)c1NC(=O)Cn1ccn(Cc2ccc(Cl)cc2)c(=O)c1=O | inactive: 2% |
| COc1ccc(-c2noc(COc3ccc(Br)cc3C)n2)cc1OC | inactive: -14.8% |
| O=C(NCC1CCN(Cc2cccc(Cl)c2)CC1)c1cc2ccc3cccnc3c2[nH]1 | inactive: 2.96% |
| CCN(Cc1ccccc1)C(=O)CN1C(=O)COc2ccc(S(=O)(=O)N(CC)CC)cc21 | inactive: 17.7% |
